# Assay results as given in PubChem BioAssay AID588591 (National Center for Advancing Translational Sciences (NCATS), 2011).
# Hit rate of the full screen: of about 390,000 compounds, about 4,700 (1.2%) were called active. Inconclusive results, whose numbers are uncertain, are shown with a selection of clear calls. The call rests on the fitted dose curve; in most records, active means well fitted inhibition curve with a large enough effect; inconclusive means small, poorly fitted or top-dose-only effect, or another doubt; inactive means no such curve, though single readings can be large or run the other way. Potencies of inconclusive entries are doubtful fits and often do not repeat.
# Target: DNA polymerase eta (Homo sapiens) (UniProt Q9Y253)
# Chain of UniProt Q9Y253 (Q9Y253 whole entry, looked up): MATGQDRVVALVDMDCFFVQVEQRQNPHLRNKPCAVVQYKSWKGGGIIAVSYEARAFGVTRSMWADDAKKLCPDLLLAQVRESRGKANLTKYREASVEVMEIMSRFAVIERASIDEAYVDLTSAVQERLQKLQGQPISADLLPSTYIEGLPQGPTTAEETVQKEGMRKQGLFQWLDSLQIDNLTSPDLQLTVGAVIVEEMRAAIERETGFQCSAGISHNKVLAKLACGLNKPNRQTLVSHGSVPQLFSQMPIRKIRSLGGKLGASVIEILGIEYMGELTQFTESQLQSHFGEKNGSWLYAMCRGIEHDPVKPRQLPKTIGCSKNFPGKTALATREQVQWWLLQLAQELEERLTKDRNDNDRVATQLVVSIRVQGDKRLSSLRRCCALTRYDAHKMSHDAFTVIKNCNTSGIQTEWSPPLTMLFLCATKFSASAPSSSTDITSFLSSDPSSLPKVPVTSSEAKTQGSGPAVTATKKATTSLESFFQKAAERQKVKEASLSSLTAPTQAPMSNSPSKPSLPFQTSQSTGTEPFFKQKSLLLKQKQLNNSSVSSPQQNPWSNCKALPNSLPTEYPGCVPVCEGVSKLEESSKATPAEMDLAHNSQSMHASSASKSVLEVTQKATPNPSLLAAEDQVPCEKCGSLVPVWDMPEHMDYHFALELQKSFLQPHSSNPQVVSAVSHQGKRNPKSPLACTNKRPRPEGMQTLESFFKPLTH
# Assay: qHTS for Inhibitors of Polymerase Eta
# Conditions: recombinant Pol eta, fluorescent DNA replication assay; series mostly up to 114 µM
# Excerpt: The Y-family of DNA polymerases, such as Pol eta, are specifically involved in DNA repair. Pol eta copies undamaged DNA with a lower fidelity than other DNA-directed polymerases. However, it accurately replicates UV-damaged DNA; when thymine dimers are present, this polymerase inserts the complementary nucleotides in the newly synthesized DNA, thereby bypassing the lesion and suppressing the mutagenic effect of UV-induced DNA damage. […] Thus, while pol eta's (and most likely iota's) normal function is to protect humans against the deleterious consequences of DNA damage, under certain conditions they can have deleterious effects on human health. As a consequence, we propose to utilize a high throughput replication assay to identify small molecule inhibitors of pol eta. In a collaboration between the National Institute of Child Health & Human Development (NICHD) and NIH Chemical Genomics Center, a high-throughput, fluorescent screen was developed to screen the NIH Molecular Libraries Small Molecule Repository (MLSMR). This screen is used to identify inhibitors of pol eta. NIH Chemical Genomics Center [NCGC] NIH Molecular Libraries Probe Centers Network [MLPCN] MLPCN Grant: MH090825 Assay Submitter (PI): Roger Woodgate, NICHD)
# Three microliters of reagents (buffer in column 3 and 4 as negative control and 10 nM Pol eta in columns 1, 2, and 5-48) were dispensed into a 1,536-well black solid-bottomed plate. Compounds (23 nL) were transferred via Kalypsys pin tool equipped with 1536-pin array. The plates were then incubated for 15 min at room temperature, and 1 µL substrate (50 nM final concentration) was added to start the reaction and kinetically read twice at 0 min and 10 min on the Viewlux reader
# Potency means the concentration at half of the fitted maximal effect; tags describe the fitted curve by direction and shape.
row,Compound,Potency
1,Cc1cc(C)cc(N2C(=O)NC(=O)/C(=C/c3cccn3-c3ccc(Cl)cc3)C2=O)c1,active: 79.4 µM
2,COc1ccc(CN2CCN(C(=O)COc3ccc4ccccc4c3)CC2)c(OC)c1,"inconclusive: 89.1 µM [inhibitor, single point]"
3,CC(C)C[C@H]1C(=O)N2CCCC2[C@]2(O)O[C@](NC(=O)[C@@H]3C=C4c5cccc6[nH]cc(c56)CC4N(C)C3)(C(C)C)C(=O)N12 (stereo partly drawn),inactive
4,COc1cc(/C=C/c2nc3ccccc3c(=O)n2-c2ccc(O)cc2)ccc1O,"inconclusive: 56.2 µM [inhibitor, partial curve, poor fit]"
5,O=C(Cc1ccccc1)c1ccccn1,"inconclusive: 8.91 µM [inhibitor, partial curve, poor fit]"
6,COc1ccc(N2C(=O)/C(=C/C=C/c3ccccc3[N+](=O)[O-])C(=O)NC2=S)cc1,active: 22.4 µM
7,O=C1NC(=O)N(c2ccc3c(c2)OCO3)C(=O)/C1=C\c1ccc(-c2ccccc2C(=O)O)o1,active: 10 µM
8,CN1C(=O)C(=Cc2ccc(N3CCCCC3)o2)C(=O)N(C)C1=S,"inconclusive: 28.2 µM [inhibitor, partial curve, poor fit]"
9,O=C(Nc1ccc(Br)cc1C(=O)O)c1ccc2c(c1)C(=O)N(Cc1ccccc1)C2=O,active: 28.2 µM
10,COc1ccc(CCn2c(NN=C3CCCC3)nc3c2c(=O)[nH]c(=O)n3C)cc1,"inconclusive: 79.4 µM [inhibitor, partial curve]"
11,COc1cccc(N2CCN(C(=O)C3CCN(S(=O)(=O)c4ccc5c(c4)oc(=O)n5C)CC3)CC2)c1,"inconclusive: 79.4 µM [inhibitor, partial curve, poor fit]"
12,Cc1ccc(N2C(=O)NC(=O)/C(=C\c3cc(C)n(-c4ccc(C(=O)O)cc4)c3C)C2=O)cc1,active: 35.5 µM
13,COC(=O)C1=Nc2ccccc2/C1=C\c1c(O)n(-c2ccc(Br)cc2)c(=O)[nH]c1=O,active: 35.5 µM
14,CCOC(=O)c1cc(C)sc1/N=C/C1C(=O)NC(=S)NC1=O,inactive
15,Cn1c(O)c(C=Nc2ccc3c(c2)CCC3)c(=O)n(C)c1=O,inactive
16,Cc1cccc(N2C(=O)NC(=O)/C(=C\C=C\c3ccco3)C2=O)c1,"inconclusive: 50.1 µM [inhibitor, partial curve, poor fit]"
17,CCOc1cc(CNCCc2c[nH]c3ccccc23)cc(Cl)c1OC,"inconclusive: 79.4 µM [inhibitor, partial curve, poor fit]"
18,N=C1/C(=C\c2ccc(OC(=O)c3ccccc3Cl)cc2)C(=O)N=C2SC(N3CCOCC3)=NN12,active: 22.4 µM
19,C[n+]1c(-c2ccccc2)c2cc(N)ccc2c2ccc(N)cc21,"inconclusive: 56.2 µM [inhibitor, partial curve, poor fit]"
20,CC(C)n1c(=O)c(C=Nc2ccc(Br)cc2)c(O)n(Cc2ccco2)c1=O,"inconclusive: 31.6 µM [inhibitor, full curve]"
21,O=C1Nc2ccccc2/C1=C/c1nc2ccccc2c(=O)n1-c1ccc(O)cc1,"inconclusive: 50.1 µM [inhibitor, partial curve, poor fit]"

row,Compound,Potency
1,Cc1ccc(N2C(=O)NC(=O)/C(=C\C=C\c3ccco3)C2=O)cc1,active: 50.1 µM
2,Oc1c(Br)c(Br)c(Br)c(Br)c1Br,"inconclusive: 89.1 µM [inhibitor, single point]"
3,O=C1NC(=S)N(c2ccc(F)cc2)C(=O)/C1=C\c1ccoc1,active: 1 µM
4,CC1CC2(C)C(CCC3C2CCC2(C)C(OP(=O)(N4CC4)N4CC4)CCC32)CC1=O (stereo not drawn),"inconclusive: 12.6 µM [inhibitor, partial curve, poor fit]"
5,COc1ccc(S(=O)(=O)N2CCOCC2)cc1NC(=O)COC(=O)Cc1ccccc1,"inconclusive: 89.1 µM [inhibitor, single point]"
6,COC(=O)C1=C(c2ccc(OCc3ccccc3)cc2)C[C@@H]2CC[C@H]1N2C,inactive
7,C[C@H](CCC(=O)O)[C@H]1CC[C@H]2[C@@H]3C(=O)C[C@@H]4CC(=O)CC[C@]4(C)[C@H]3CC(=O)[C@]12C,"inconclusive: 100 µM [inhibitor, partial curve, poor fit]"
8,CCC(C(=O)Nc1ccccc1F)N1C(=O)CN=C(c2ccccc2)c2ccccc21 (stereo not drawn),"inconclusive: 79.4 µM [inhibitor, partial curve, poor fit]"
9,COc1cccc(OP(=O)(Nc2ccccc2)Oc2cccc(OC)c2)c1,"inconclusive: 79.4 µM [inhibitor, partial curve, poor fit]"
10,COc1cccc(C2CCN(CC(=O)Nc3cc(Cl)ccc3OC)CC2O)c1 (stereo not drawn),"inconclusive: 50.1 µM [inhibitor, partial curve, poor fit]"
11,O=C1NC(=O)N(c2ccccc2)C(=O)/C1=C/c1coc2ccc(O)cc2c1=O,"inconclusive: 79.4 µM [inhibitor, partial curve, poor fit]"
12,CCOC(=O)c1ccc(Nc2nc(C)cc(C)n2)cc1,"inconclusive: 35.5 µM [inhibitor, single point]"
13,Cc1cccc(Oc2nc3c(C)cccn3c(=O)c2/C=C(\C#N)c2nc3ccccc3s2)c1,active: 50.1 µM
14,Nc1ccccc1N=Cc1c(O)n(CCC2=CCCCC2)c(=O)[nH]c1=O,"inconclusive: 22.4 µM [inhibitor, single point]"
15,Nc1cc(Cl)c2nonc2c1[N+](=O)[O-],"inconclusive: 22.4 µM [inhibitor, partial curve, poor fit]"
16,O=[N+]([O-])c1ccc(NC2CCCC2)c2ccncc12,"inconclusive: 35.5 µM [inhibitor, partial curve, poor fit]"
17,Cc1cc(C=C2C(=O)NC(=O)NC2=O)c(C)n1-c1ccc2c(c1)OCO2,active: 31.6 µM
18,CCCCCc1nc2c(c(=O)c3ccccc3n2C)c(=O)n1C1CCCCCC1,"inconclusive: 20 µM [inhibitor, partial curve, poor fit]"
19,CCN(CC)P(=O)(c1n(CC)cc[n+]1CC)N(CC)CC,inactive
20,CC[C@H](C)/C=C(C)/C=C/C1=CC2=C(Cl)C(=O)[C@](C)(OC(C)=O)C(=O)C2=CO1,active: 20 µM
21,CC(=O)O[C@@]12CO[C@@H]1C[C@H](OC1OCC(O)C(O)C1O)[C@@]1(C)C(=O)[C@H](O)C3=C(C)[C@@H](OC(=O)[C@H](O)[C@@H](NC(=O)c4ccccc4)c4ccccc4)C[C@@](O)([C@@H](OC(=O)c4ccccc4)C12)C3(C)C (stereo partly drawn),"inconclusive: 100 µM [inhibitor, partial curve, poor fit]"

row,Compound,Potency
1,Cc1ccc(/C(CSc2nccn2-c2ncc(C(F)(F)F)cc2Cl)=N\O)cc1,"inconclusive: 56.2 µM [inhibitor, partial curve, poor fit]"
2,O=C1NC(=S)N(c2ccc(Cl)cc2)C(=O)/C1=C/N1CCN(C(=O)c2ccco2)CC1,inactive
3,COc1ccccc1N1C(=O)NC(=O)/C(=C/c2ccc([N+](=O)[O-])s2)C1=O,active: 17.8 µM
4,O=C(O)c1ccc2c(c1)C1C(Cl)C(Sc3ccccc3[N+](=O)[O-])CC1C(c1cccc([N+](=O)[O-])c1)N2 (stereo not drawn),active: 22.4 µM
5,O=C(O)CCC(=O)NCCC1=c2ccccc2=N/C1=C\c1c(O)n(Cc2ccc(F)cc2)c(=S)[nH]c1=O,active: 50.1 µM
6,O=C(c1c[nH]c(C(=O)C(Cl)(Cl)Cl)c1)c1ccccc1Cl,"inconclusive: 35.5 µM [inhibitor, partial curve, poor fit]"
7,O=c1c2ccccc2nc(/C=C/c2ccc([N+](=O)[O-])o2)n1-c1ccc(O)cc1,"inconclusive: 79.4 µM [inhibitor, single point]"
8,NC(Cn1ccc(=O)[nH]c1=O)C(=O)O (stereo not drawn),inactive
9,Cc1ccc(/C=C2\C(=O)NC(=S)N(c3ccccc3F)C2=O)s1,"inconclusive: 14.1 µM [inhibitor, full curve, poor fit]"
10,O=c1oc2ccccc2c(O)c1[C@H]1c2ccc(O)cc2Oc2c1c(=O)oc1ccccc21,"inconclusive: 79.4 µM [inhibitor, partial curve]"
11,C[C@]12C=CC(=O)C=C1CCC1C2=CC[C@]2(C)[C@@H](C(=O)CN3CCN(c4cc(N5CCCC5)nc(N5CCCC5)n4)CC3)CC[C@@H]12 (stereo partly drawn),"inconclusive: 14.1 µM [inhibitor, partial curve]"
12,CCN1C(=O)C(=C2C=C(C)OC(C)=C2)C(=O)N(CC)C1=S,inactive
13,CC(=O)N[C@@H]1CC[C@@]2(O)[C@H]3Cc4ccc(O)c5c4[C@@]2(CCN3CC2CC2)[C@@H]1O5,inactive
14,CCN1C(=O)C(=C/C=C/c2ccco2)C(=O)N(CC)C1=S,active: 3.55 µM
15,CCn1ncc(-c2ccnc3cc(C(=O)O)nn23)c1C,active: 25.1 µM
16,O=C(CSc1nc(-c2ccc(Cl)cc2)[nH]c(=O)n1)Nc1cccc(Cl)c1,"inconclusive: 89.1 µM [inhibitor, partial curve]"
17,CC(C)[N+]12CCC(CC1)C(C(O)(c1ccccc1)c1ccccc1)C2 (stereo not drawn),inactive
18,O=C1NC(=O)[C@]2(Cc3ccccc3N3CCN(c4ccccc4)CC32)C(=O)N1c1ccccc1 (stereo partly drawn),active: 44.7 µM
19,COC(=O)C(O)(c1c(C)[nH]n(-c2ccccc2)c1=O)C(F)(F)F (stereo not drawn),"inconclusive: 50.1 µM [inhibitor, partial curve, poor fit]"
20,CCOc1cccc(OCC)c2c(C)[n+](CC3CCCO3)c(C)c1-2 (stereo not drawn),active: 44.7 µM
21,c1ccc(Nc2ccc(Nc3ccccc3)cc2)cc1,inactive
